Among the data in the supplement of paper PMC10126150 are switch fluorescence ratio values, retold here.

Values marked as one replicate rest on one cluster of the flow cell; about a third of the high ones do not repeat.
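Note: ATP exposure 15 min at 22 °C before imaging.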

The subject of this data set is ATP. The data set is described as follows: switch fluorescence ratio, 500 uM ATP over buffer (Cy3 cluster intensity, sum of 5 cycles each) (fold (ratio)); higher = stronger signal-on switching upon ATP binding; sequences stand for … in TCGTCGGCAGCGTCAGATGTGTATAAGAGACAGTTTTTTTTTTTTTTTTTTTTTTTTT…TC. The following applies: aptamer strand: ATP DNA aptamer (quencher-CACCTGGGGGAGTATTGCGGAGGAAGG + anchor), 100 nM annealed; ATP concentration: 500 uM; one replicate. Summed up: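 Clusters carrying Cy3-labelled switching strands on a modified Illumina MiSeq flow-cell were annealed to 100 nM quencher-labelled ATP aptamer and imaged in selection buffer. They were imaged again after 15 min with 500 uM ATP at 22 °C, over five buffer/ATP cycles with NaOH stripping and re-annealing in between. For each cluster, the fluorescence ratio is the summed Cy3 intensity of the target cycles divided by that of the buffer cycles, averaged per switch-domain sequence. Clusters outside 100-1000 RFU were left out.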
As to GAGATCTATA, the switch fluorescence ratio came to 1.01. As for ATAGAGAATA, the switch fluorescence ratio was found to be 0.978. For the sequence TCGGGCTCCG, the switch fluorescence ratio worked out at 1.05. AGACTACCGG: the switch fluorescence ratio is 0.975. Take CGTGGCGGTG: the switch fluorescence ratio amounted to 0.955. With TGGATGAGCC the figure was 0.98; with TTTGCAGGAG, 1.2; with ATGTACTATT, 1.07.

Regarding GTGTTCTCTT, the switch fluorescence ratio amounted to 0.943.

With TACGTCACGG, the switch fluorescence ratio turned out to be 1.58. With CTCTCTTGGT, the switch fluorescence ratio amounted to 1.05.

In the case of CCAGCGAATT, the switch fluorescence ratio was found to be 2.41.

GCTGGAAAGT: the switch fluorescence ratio stood at 0.956. AATATCAATA: the switch fluorescence ratio is 0.985.

For the sequence TTGGATCTGG, the switch fluorescence ratio was found to be 1.03. Next, TCATCAGAAG: 1.01. Regarding TACGCCGGTT, the switch fluorescence ratio amounted to 0.95. As for ATTGGTTAGC, the switch fluorescence ratio was found to be 0.976.

For the sequence ATCAGGCAAT, the switch fluorescence ratio stood at 1.85.

For GGAGTTCGAC, the switch fluorescence ratio amounted to 0.951. Take ATGGAGGTGC: the switch fluorescence ratio is 1.13. With CGGCGATTTT the figure was 1.13; with TAATAGGGTA, 1.04. As for TTATCGAAAA, the switch fluorescence ratio worked out at 0.988.

Regarding TTTAATGCCC, the switch fluorescence ratio is 1.31. For the sequence CATTTCCACG, the switch fluorescence ratio amounted to 1.04. Turning to TATACCACTT, the switch fluorescence ratio worked out at 1.03. With TCCTCAATCT, the switch fluorescence ratio stood at 1.49.

Take GCGGTTATAC: the switch fluorescence ratio was 2.39. Next, ACGGATGCTA: 1.11; TTTGTAATTA: 0.994. For GAATTCTTGG, the switch fluorescence ratio amounted to 1.02. On to TACATATTAG, for which the switch fluorescence ratio amounted to 1. Take ACATAGTAAA: the switch fluorescence ratio stood at 1.04. Consider TGCCTGAAGA, for which the switch fluorescence ratio worked out at 1.04. As for GATCTCCTA, the switch fluorescence ratio was 0.92. Next, GATTTTCGTG: 0.964; GTAATGTATT: 1.03.

On to CAGTAGCCTG, for which the switch fluorescence ratio was 1.02. With CTAGGCCGGT the figure was 0.949; with GGTACTGATT, 1.04; with GTTAGCCATG, 1.04.

Consider GAAGAATCGC, for which the switch fluorescence ratio came to 1.03. Next, TGTGTATATG: 1.01.

Turning to GTTGATCATT, the switch fluorescence ratio was determined as 1. For the sequence CCTGCATGAT, the switch fluorescence ratio was 1.33. For ACAATTTTGT, the switch fluorescence ratio came to 1.04.

On to CTACAGCGAT, for which the switch fluorescence ratio amounted to 3.56. TGCGTTAGTA: the switch fluorescence ratio was determined as 1.

For CCCCCGGGCT, the switch fluorescence ratio amounted to 0.989. GCGTATGTAG: the switch fluorescence ratio was found to be 0.953. With AAACATTAGC the figure was 0.999; with GCATAAATGG, 1.01; with GGGGCGAAAA, 0.993. Next, CAGAGTTGTG: 0.98.

Consider ATCGGCCGAC, for which the switch fluorescence ratio worked out at 1. In the case of ACGGACGTTG, the switch fluorescence ratio turned out to be 1.03. Next, TCAGGTACAA: 1.05; GCTATCAACT: 1.01. Turning to CAGAGTTTAC, the switch fluorescence ratio turned out to be 1.1. Next, AAACCCATGG: 1.02; AAAGGGAAGA: 1.03; GGCTTTCATC: 1.04. With AGCGAATTGG the figure was 1.02; with ATATGCTTCC, 2.05; with AGGCATTGTG, 0.964. With GTCTGGTATG the figure was 0.963; with TCATGTCTGG, 0.934. TTTGCATAAG: the switch fluorescence ratio stood at 0.995. As to GGTGAAAAGG, the switch fluorescence ratio was 0.956. Take CGGTGGCCCC: the switch fluorescence ratio was determined as 0.962. With GGGCTATTCG the figure was 0.982; with GGGGCCTGTA, 0.941; with CAGGGGACAC, 1.02.

Consider GTTATGTTCC, for which the switch fluorescence ratio came to 1.04.

Regarding CTAATAAAAG, the switch fluorescence ratio was 1.03. Next, TAGTTCTAGG: 0.984; TCCTCATGGG: 1.04; GCCACTAATC: 1.04. Next, AATCGACTAA: 1.04; AGAGAGATTG: 0.95. With CGGTATCAAA the figure was 0.993. In the case of CATGCGAGA, the switch fluorescence ratio was 1.02.

Turning to TAGCGCTGAG, the switch fluorescence ratio was found to be 1.02.

Consider TATCGACTTT, for which the switch fluorescence ratio was 0.98. With TCGT the figure was 1.03; with CTACTACGGA, 1.02; with AGGGCACTCA, 1.07.

CGCTGCAAGG: the switch fluorescence ratio was found to be 2.1. With AGCGAAAACT the figure was 1.52; with TGCCAGTGAG, 0.976. With ATTTTTGGAC the figure was 1.04; with AGTCTAAGAA, 0.975; with TGATGTCGGA, 0.965. With CTATTTGATT the figure was 1.02; with GGATTCTTCG, 1.07.

With ACGAACCGGG, the switch fluorescence ratio was 1.17.

Turning to CAACGGCAGG, the switch fluorescence ratio was 1.04. As for AGATCTTATA, the switch fluorescence ratio was determined as 0.977. On to CCGGAGTGTA, for which the switch fluorescence ratio came out at 2.42. On to TGCTGGCTG, for which the switch fluorescence ratio came out at 0.984. With AGGCCCAGTG the figure was 1.85. Regarding GATTTGAGAT, the switch fluorescence ratio was determined as 1.02. Next, GCTTGCGTGG: 0.988; TAAGTAATGC: 0.999; AGTTTGTATT: 0.978. Next, GGGCCATGAT: 0.998.

Regarding TGTTTTGT, the switch fluorescence ratio is 1.02. With ATCCCCCTAG the figure was 1.34; with TAGGCCTATA, 1.01; with CGGTTAAATT, 1. Next, TGGGCTATAT: 0.951.

TCGTAGCGAG: the switch fluorescence ratio stood at 1.18. With TACGGGGTTA the figure was 1.01; with GGCGGAGGAC, 0.996.

For the sequence TGTTGTGTGC, the switch fluorescence ratio worked out at 1.07. With TGTGGGATG the figure was 1; with GCTTGCCCGA, 1.03; with ATTTACTGGG, 1.

As to CAGATGTCTA, the switch fluorescence ratio came out at 1.02.
